Laboratory results reported in the supplement of paper PMC3334620.
Whole data set: some 33,000 sequences, median “E-score (-0.5 to 0.5)” near -0.012, cut for the highest 2% near 0.29. Some of the results follow.

Target: T1, Ybr033w (UniProt P38073)
T1 sequence: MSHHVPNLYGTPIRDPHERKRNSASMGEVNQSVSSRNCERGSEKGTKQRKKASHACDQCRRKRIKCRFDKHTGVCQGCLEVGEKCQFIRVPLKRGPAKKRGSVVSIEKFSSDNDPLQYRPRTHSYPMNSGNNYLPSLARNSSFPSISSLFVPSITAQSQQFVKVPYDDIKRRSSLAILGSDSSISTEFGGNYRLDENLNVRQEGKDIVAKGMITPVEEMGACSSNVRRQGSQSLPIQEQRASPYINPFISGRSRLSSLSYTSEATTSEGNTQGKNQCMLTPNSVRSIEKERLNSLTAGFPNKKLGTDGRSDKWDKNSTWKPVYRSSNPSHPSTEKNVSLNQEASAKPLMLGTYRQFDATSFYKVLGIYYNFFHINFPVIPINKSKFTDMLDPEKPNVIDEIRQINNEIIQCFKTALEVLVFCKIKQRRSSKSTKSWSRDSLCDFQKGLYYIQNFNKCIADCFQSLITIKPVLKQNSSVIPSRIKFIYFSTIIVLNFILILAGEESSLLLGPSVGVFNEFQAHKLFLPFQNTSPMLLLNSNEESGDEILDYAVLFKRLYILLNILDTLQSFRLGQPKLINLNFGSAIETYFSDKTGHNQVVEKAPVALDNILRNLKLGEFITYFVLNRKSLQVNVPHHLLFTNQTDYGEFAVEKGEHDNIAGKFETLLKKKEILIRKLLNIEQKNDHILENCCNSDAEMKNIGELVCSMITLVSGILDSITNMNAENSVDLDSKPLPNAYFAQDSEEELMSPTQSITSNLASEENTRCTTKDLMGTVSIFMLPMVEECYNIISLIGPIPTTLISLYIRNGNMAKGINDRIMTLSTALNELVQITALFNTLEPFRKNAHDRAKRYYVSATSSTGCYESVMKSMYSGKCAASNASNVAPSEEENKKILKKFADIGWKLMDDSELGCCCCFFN
Experiment: PBM E-score (8-mer binding enrichment) (E-score (-0.5 to 0.5)); higher = stronger / more preferred TF binding; most listed sequences are background and not binding sites
Conditions: protein concentration: 200 nM; construct: GST-full length
How it was run: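 Detection of bound protein used fluorescent anti-GST, with scans normalised by masliner. The proteins were GST-tagged yeast transcription factors applied at about 100-200 nM to universal all-10-mer Agilent arrays made double-stranded by primer extension. Each ungapped eight-base word, pooled with its reverse complement, was scored with an E-score from the Universal PBM Analysis Suite.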

Sequence | PBM E-score
AAAAAAAT | 0.248
GAAAACGA | -0.0206
CTCAGAGC | -0.191
TGGTAACA | 0.0318
AGAGTAGC | -0.106
AAATTACC | 0.164
GAGAAAAC | 0.111
TTAAATAA | 0.264
ACAAGGCG | -0.0775
TCGCGCAA | 0.086
ATCCGTAA | 0.131
CGTGGAGC | -0.215
CAGGAATG | -0.00908
CGCGCCTA | -0.123
GAGCAGAA | -0.142
GGATAGGA | -0.0374
ACTTGGAT | 0.232
TGAGTAAA | 0.172
ACCCGCGA | -0.0162
AGATGTCG | -0.001
AACTCGGG | -0.185
CCTAAGAC | -0.24
AGGCGGCA | -0.191
GGCAACCC | -0.094
CATGGTCG | -0.196

Sequence | PBM E-score
AACACATT | 0.0531
CAACACTA | 0.186
ACTATGCT | 0.117
GAAATGGA | -0.0884
AGTTGTCG | -0.0295
GATGCATC | 0.0586
AAAGGCCC | -0.105
AGCATTCA | 0.117
ATCCATAA | 0.189
ACGGTAAT | 0.0536
AGTGATTC | -0.0187
ACATCAGA | 0.0618
CAGTGAAG | 0.0193
CCCCTGGC | -0.284
CGAGATGA | -0.0522
AACCTGGC | -0.0474
ATCTTGGG | -0.0165
GTCCCAAC | -0.194
GACTAATC | 0.0103
GGTCACAA | -0.0218
GTAGAGTA | 0.105
CAAGGTGC | -0.185
ACTAATTC | 0.221
ACCGAATG | -0.0209
GCAACACA | -0.127

Sequence | PBM E-score
AACCATGT | 0.061
AGTCTAAC | -0.147
AAACGCCG | 0.0154
GAGAGGGC | -0.383
ACCTCTGA | 0.0287
CCGTCAAG | -0.0253
CAACGGGG | -0.22
ATCACCAT | 0.192
AACAATAA | 0.258
CCCAAGGA | -0.0564
CTCGCCAC | -0.0478
CATTTAAC | 0.169
ATTCACCG | 0.166
GTATCGAC | 0.0715
GTCCTACA | 0.015
AGCATAAG | 0.0555
GGACGTTA | 0.086
ACTTGATC | 0.22
ATCACATC | 0.0917
AATCTGTA | 0.13
GGTATCCA | 0.0244
AAACATCT | 0.087
AGTAATCG | 0.0662
ACATCCTG | 0.0592
GTTGGTCA | 0.106

Sequence | PBM E-score
AACTAGCA | 0.114
AGATCTGC | 0.00237
AGACTGCT | -0.128
GCGTTCCC | -0.237
ACCATCAC | 0.0848
GCGAACTA | 0.00407
AGCATTGC | -0.0135
CGACCGGC | -0.116
ACGTTTCA | 0.0374
CGGCAAAG | -0.15
GGGTACAA | 0.0163
AGCCTGTA | -0.0394
GCGTAAGA | 0.0377
AGACGTGC | -0.0692
AACGGAGG | -0.218
AATAGGCG | 0.048
GACTACCC | -0.0847
AAAATCCA | 0.339
CGCCTACC | -0.167
AACTCTGT | 0.00059
GTAACATA | 0.155
CCACTATC | 0.0512
GTTTGCTA | 0.118
GAACTTAA | 0.155
TTAACGAA | 0.296

Sequence | PBM E-score
AGGCACGC | -0.155
GTATGACA | 0.112
ATGAGAGC | -0.194
ATCATTGA | 0.237
CTTCCGCC | -0.0511
CATAGTAC | 0.0737
GGTTCCGA | 0.019
GAACCCTC | -0.236
CAGTTTCA | 0.0567
CGTCTATC | -0.0447
CGAACTAG | -0.0932
CTTGTAGA | -0.145
GTACCCAC | -0.116
AGACCGCC | -0.0316
ATCACCAA | 0.165
CCCGGACG | -0.26
ATCCCACC | -0.0372
CCCAGAGG | -0.313
CGCATTTA | 0.228
ATCCGAAG | 0.118
TTCCGCAA | 0.153
AGGCGCAA | -0.0276
ATATCCCG | 0.202
CTCAGATA | 0.131
AACTTCGA | 0.0183

Sequence | PBM E-score
CAGGCGCA | -0.136
AAGTATGT | 0.153
CTTATTGC | -0.19
AATAACAT | 0.199
AGAACGTG | 0.0546
CGGTGGGC | -0.214
CAACCTTG | 0.0694
TTGCGCAA | 0.158
TAGGCGGA | 0.172
AGCAGTGC | -0.092
ACATCGAC | -0.0961
TAGGGTCA | -0.0821
AATTTACT | 0.311
CTTCGACC | -0.0409
AATTTGCC | 0.0242
ATACCAAT | 0.201
CAATGCCG | -0.153
GATTAGCC | 0.0427
AAATACGG | 0.0582
TATTCTCA | 0.0372
CCCTAGTC | -0.295
AGGCTCTC | -0.293
CTGACGCA | -0.228
GAAGGCTC | -0.0655
CCACCGTA | -0.0489

Sequence | PBM E-score
TCTTCGAA | -0.0382
CTAAGAAC | 0.0257
ATAAGAAC | 0.178
CACATGAA | -0.046
ACGAGTAG | 0.017
CAGCACGG | 0.0148
ATCAGCGG | -0.089
AACTTATA | 0.353
GCAGTGAA | 0.175
AACGGTGT | -0.113
CACACATA | 0.00689
CAGTACTC | 0.0143
CCGTGACC | -0.197
CTGTGCAA | -0.019
TACGTCAA | 0.0316
CCTGAGCG | -0.121
AACTAATG | 0.29
AACCCAGA | 0.0447
ATTCCTTA | 0.274
ACCATTAA | 0.28
TGGTGTAA | -0.0487
AACTAAAA | 0.237
